Results published in patent US20170253656A1.

B1: HC 1251_A06 (wt)/LC 1275_C10 (wt) (antibody, human IgG1, kappa)
heavy: MQVQLVESGGGVVQPGRSLRLSCAASGFDFSSYGMHWVRQAPDKGLEWVAVIWDDGSDRYYADSVKGRFTISRDNSKNTLYLQMNSLRAEDTAVYYCARGGTRVLGAIHGTDVWGQGTTVTVSSASTKGPSVFPLAPSSKSTSGGTAALGCLVEDYFPEPATVSWNSGALTSGVHTFPAVLQSSGLYSLSSVVTVPSSSLGTQTYICNVNHKPSNTKVDKKV[human IgG1 Fc omitted]GGSHHHHHH
light: MDIQMTQSPSSLSASVGDRVTITCRASQGVSSWLAWYQQKPEKAPKSLIYSARYLQSGVPSRFSGSGSGTDFTLTISSLQPEDFATYYCQQYNLYPLTFGGGTKVEIKRTVAAPSVFIFPPSDEQLKSGTASVVCLLNNFYPREAKVQWKVDNALQSGNSQESVTEQDSKDSTYSLSSTLTLSKADYEKHKVYACEVTHQGLSSPVTKSFNRGEC
B2: HC 1251_A06 (wt)/LC 1275_C10 (g) (antibody, human IgG1, kappa)
heavy: MQVQLVESGGGVVQPGRSLRLSCAASGFDFSSYGMHWVRQAPDKGLEWVAVIWDDGSDRYYADSVKGRFTISRDNSKNTLYLQMNSLRAEDTAVYYCARGGTRVLGAIHGTDVWGQGTTVTVSSASTKGPSVFPLAPSSKSTSGGTAALGCLVEDYFPEPATVSWNSGALTSGVHTFPAVLQSSGLYSLSSVVTVPSSSLGTQTYICNVNHKPSNTKVDKKV[human IgG1 Fc omitted]GGSHHHHHH
light: MDIQMTQSPSSVSASVGDRVTITCRASQGVSSWLAWYQQKPGKAPKLLIYSARYLQSGVPSRFSGSGSGTDFTLTISSLQPEDFATYYCQQYNLYPLTFGGGTKVEIKRTVAAPSVFIFPPSDEQLKSGTASVVCLLNNFYPREAKVQWKVDNALQSGNSQESVTEQDSKDSTYSLSSTLTLSKADYEKHKVYACEVTHQGLSSPVTKSFNRGEC
B3: HC 1251_A06 (wt)/LC 1337_A09 (wt) (antibody, human IgG1, kappa)
heavy: MQVQLVESGGGVVQPGRSLRLSCAASGFDFSSYGMHWVRQAPDKGLEWVAVIWDDGSDRYYADSVKGRFTISRDNSKNTLYLQMNSLRAEDTAVYYCARGGTRVLGAIHGTDVWGQGTTVTVSSASTKGPSVFPLAPSSKSTSGGTAALGCLVEDYFPEPATVSWNSGALTSGVHTFPAVLQSSGLYSLSSVVTVPSSSLGTQTYICNVNHKPSNTKVDKKV[human IgG1 Fc omitted]GGSHHHHHH
light: MDIQMTQSPSSLSASVGDRVTITCRASQGIGSWLAWYQQKPEKAPKSLIYAADRLQSGVPSRFSGSGSGTDFTLTISSLQPEDFATYYCQQYHTYPLTFGGGTKVEIKRTVAAPSVFIFPPSDEQLKSGTASVVCLLNNFYPREAKVQWKVDNALQSGNSQESVTEQDSKDSTYSLSSTLTLSKADYEKHKVYACEVTHQGLSSPVTKSFNRGEC
B4: HC 1251_A06 (wt)/LC 1337_A09 (g) (antibody, human IgG1, kappa)
heavy: MQVQLVESGGGVVQPGRSLRLSCAASGFDFSSYGMHWVRQAPDKGLEWVAVIWDDGSDRYYADSVKGRFTISRDNSKNTLYLQMNSLRAEDTAVYYCARGGTRVLGAIHGTDVWGQGTTVTVSSASTKGPSVFPLAPSSKSTSGGTAALGCLVEDYFPEPATVSWNSGALTSGVHTFPAVLQSSGLYSLSSVVTVPSSSLGTQTYICNVNHKPSNTKVDKKV[human IgG1 Fc omitted]GGSHHHHHH
light: MDIQMTQSPSSVSASVGDRVTITCRASQGIGSWLAWYQQKPGKAPKLLIYAADRLQSGVPSRFSGSGSGTDFTLTISSLQPEDFATYYCQQYHTYPLTFGGGTKVEIKRTVAAPSVFIFPPSDEQLKSGTASVVCLLNNFYPREAKVQWKVDNALQSGNSQESVTEQDSKDSTYSLSSTLTLSKADYEKHKVYACEVTHQGLSSPVTKSFNRGEC
B5: HC 1251_A06 (wt)/LC 1337_A07 (wt) (antibody, human IgG1, kappa)
heavy: MQVQLVESGGGVVQPGRSLRLSCAASGFDFSSYGMHWVRQAPDKGLEWVAVIWDDGSDRYYADSVKGRFTISRDNSKNTLYLQMNSLRAEDTAVYYCARGGTRVLGAIHGTDVWGQGTTVTVSSASTKGPSVFPLAPSSKSTSGGTAALGCLVEDYFPEPATVSWNSGALTSGVHTFPAVLQSSGLYSLSSVVTVPSSSLGTQTYICNVNHKPSNTKVDKKV[human IgG1 Fc omitted]GGSHHHHHH
light: MDIQMTQSPSSLSASVGDRVTITCRASQGISSWVAWYQQKPEKAPKSLIYGASRLQSGVPSRFSGSGSGTDFTLTISSLQPEDFATYYCQQYHTYPLTFGGGTKVEIKRTVAAPSVFIFPPSDEQLKSGTASVVCLLNNFYPREAKVQWKVDNALQSGNSQESVTEQDSKDSTYSLSSTLTLSKADYEKHKVYACEVTHQGLSSPVTKSFNRGEC
B6: HC 1251_A06 (wt)/LC 1337_A07 (g) (antibody, human IgG1, kappa)
heavy: MQVQLVESGGGVVQPGRSLRLSCAASGFDFSSYGMHWVRQAPDKGLEWVAVIWDDGSDRYYADSVKGRFTISRDNSKNTLYLQMNSLRAEDTAVYYCARGGTRVLGAIHGTDVWGQGTTVTVSSASTKGPSVFPLAPSSKSTSGGTAALGCLVEDYFPEPATVSWNSGALTSGVHTFPAVLQSSGLYSLSSVVTVPSSSLGTQTYICNVNHKPSNTKVDKKV[human IgG1 Fc omitted]GGSHHHHHH
light: MDIQMTQSPSSVSASVGDRVTITCRASQGISSWVAWYQQKPGKAPKLLIYGASRLQSGVPSRFSGSGSGTDFTLTISSLQPEDFATYYCQQYHTYPLTFGGGTKVEIKRTVAAPSVFIFPPSDEQLKSGTASVVCLLNNFYPREAKVQWKVDNALQSGNSQESVTEQDSKDSTYSLSSTLTLSKADYEKHKVYACEVTHQGLSSPVTKSFNRGEC
B7: HC 1251_A06 (wt)/LC 1337_A10 (wt) (antibody, human IgG1, kappa)
heavy: MQVQLVESGGGVVQPGRSLRLSCAASGFDFSSYGMHWVRQAPDKGLEWVAVIWDDGSDRYYADSVKGRFTISRDNSKNTLYLQMNSLRAEDTAVYYCARGGTRVLGAIHGTDVWGQGTTVTVSSASTKGPSVFPLAPSSKSTSGGTAALGCLVEDYFPEPATVSWNSGALTSGVHTFPAVLQSSGLYSLSSVVTVPSSSLGTQTYICNVNHKPSNTKVDKKV[human IgG1 Fc omitted]GGSHHHHHH
light: MDIQMTQSPSSLSASVGDRVTITCRASQGISSWVAWYQQKPEKAPKSLIYGSSRLQSGVPSRFSGSGSGTDFTLTISSLQPEDFATYYCQQYNTYPLTFGGGTKVEIKRTVAAPSVFIFPPSDEQLKSGTASVVCLLNNFYPREAKVQWKVDNALQSGNSQESVTEQDSKDSTYSLSSTLTLSKADYEKHKVYACEVTHQGLSSPVTKSFNRGEC
B8: HC 1251_A06 (wt)/LC 1337_A10 (g) (antibody, human IgG1, kappa)
heavy: MQVQLVESGGGVVQPGRSLRLSCAASGFDFSSYGMHWVRQAPDKGLEWVAVIWDDGSDRYYADSVKGRFTISRDNSKNTLYLQMNSLRAEDTAVYYCARGGTRVLGAIHGTDVWGQGTTVTVSSASTKGPSVFPLAPSSKSTSGGTAALGCLVEDYFPEPATVSWNSGALTSGVHTFPAVLQSSGLYSLSSVVTVPSSSLGTQTYICNVNHKPSNTKVDKKV[human IgG1 Fc omitted]GGSHHHHHH
light: MDIQMTQSPSSVSASVGDRVTITCRASQGISSWVAWYQQKPGKAPKLLIYGSSRLQSGVPSRFSGSGSGTDFTLTISSLQPEDFATYYCQQYNTYPLTFGGGTKVEIKRTVAAPSVFIFPPSDEQLKSGTASVVCLLNNFYPREAKVQWKVDNALQSGNSQESVTEQDSKDSTYSLSSTLTLSKADYEKHKVYACEVTHQGLSSPVTKSFNRGEC
B9: HC 1251_B08 (wt)/LC 1275_C10 (wt) (antibody, human IgG1, kappa)
heavy: MQVQLVESGGGVVQPGRSLRLSCAASGFNFSDYGMHWVRQAPDKGLEWVAVIWYDGSISYYADSVKGRFTISRDNSKNTLYLQMNSLRAEDTAVYYCARGGTVEHGAVYGTDVWGQGATVTVSS[human IgG1 constant region omitted]GGSHHHHHH
light: MDIQMTQSPSSLSASVGDRVTITCRASQGVSSWLAWYQQKPEKAPKSLIYSARYLQSGVPSRFSGSGSGTDFTLTISSLQPEDFATYYCQQYNLYPLTFGGGTKVEIKRTVAAPSVFIFPPSDEQLKSGTASVVCLLNNFYPREAKVQWKVDNALQSGNSQESVTEQDSKDSTYSLSSTLTLSKADYEKHKVYACEVTHQGLSSPVTKSFNRGEC
B10: HC 1251_B08 (wt)/LC 1275_C10 (g) (antibody, human IgG1, kappa)
heavy: MQVQLVESGGGVVQPGRSLRLSCAASGFNFSDYGMHWVRQAPDKGLEWVAVIWYDGSISYYADSVKGRFTISRDNSKNTLYLQMNSLRAEDTAVYYCARGGTVEHGAVYGTDVWGQGATVTVSS[human IgG1 constant region omitted]GGSHHHHHH
light: MDIQMTQSPSSVSASVGDRVTITCRASQGVSSWLAWYQQKPGKAPKLLIYSARYLQSGVPSRFSGSGSGTDFTLTISSLQPEDFATYYCQQYNLYPLTFGGGTKVEIKRTVAAPSVFIFPPSDEQLKSGTASVVCLLNNFYPREAKVQWKVDNALQSGNSQESVTEQDSKDSTYSLSSTLTLSKADYEKHKVYACEVTHQGLSSPVTKSFNRGEC
B11: HC 1251_B08 (wt)/LC 1337_A09 (wt) (antibody, human IgG1, kappa)
heavy: MQVQLVESGGGVVQPGRSLRLSCAASGFNFSDYGMHWVRQAPDKGLEWVAVIWYDGSISYYADSVKGRFTISRDNSKNTLYLQMNSLRAEDTAVYYCARGGTVEHGAVYGTDVWGQGATVTVSS[human IgG1 constant region omitted]GGSHHHHHH
light: MDIQMTQSPSSLSASVGDRVTITCRASQGIGSWLAWYQQKPEKAPKSLIYAADRLQSGVPSRFSGSGSGTDFTLTISSLQPEDFATYYCQQYHTYPLTFGGGTKVEIKRTVAAPSVFIFPPSDEQLKSGTASVVCLLNNFYPREAKVQWKVDNALQSGNSQESVTEQDSKDSTYSLSSTLTLSKADYEKHKVYACEVTHQGLSSPVTKSFNRGEC
B12: HC 1251_B08 (wt)/LC 1337_A09 (g) (antibody, human IgG1, kappa)
heavy: MQVQLVESGGGVVQPGRSLRLSCAASGFNFSDYGMHWVRQAPDKGLEWVAVIWYDGSISYYADSVKGRFTISRDNSKNTLYLQMNSLRAEDTAVYYCARGGTVEHGAVYGTDVWGQGATVTVSS[human IgG1 constant region omitted]GGSHHHHHH
light: MDIQMTQSPSSVSASVGDRVTITCRASQGIGSWLAWYQQKPGKAPKLLIYAADRLQSGVPSRFSGSGSGTDFTLTISSLQPEDFATYYCQQYHTYPLTFGGGTKVEIKRTVAAPSVFIFPPSDEQLKSGTASVVCLLNNFYPREAKVQWKVDNALQSGNSQESVTEQDSKDSTYSLSSTLTLSKADYEKHKVYACEVTHQGLSSPVTKSFNRGEC
B13: HC 1251_B08 (wt)/LC 1337_A07 (wt) (antibody, human IgG1, kappa)
heavy: MQVQLVESGGGVVQPGRSLRLSCAASGFNFSDYGMHWVRQAPDKGLEWVAVIWYDGSISYYADSVKGRFTISRDNSKNTLYLQMNSLRAEDTAVYYCARGGTVEHGAVYGTDVWGQGATVTVSS[human IgG1 constant region omitted]GGSHHHHHH
light: MDIQMTQSPSSLSASVGDRVTITCRASQGISSWVAWYQQKPEKAPKSLIYGASRLQSGVPSRFSGSGSGTDFTLTISSLQPEDFATYYCQQYHTYPLTFGGGTKVEIKRTVAAPSVFIFPPSDEQLKSGTASVVCLLNNFYPREAKVQWKVDNALQSGNSQESVTEQDSKDSTYSLSSTLTLSKADYEKHKVYACEVTHQGLSSPVTKSFNRGEC

The binders below were run against CD74 on CD74 positive SU-DHL-6 cells, P04233 (assay: cell-based or functional assay).

Row | Binder | 2ND ADC CELL KILL ACTIVITY IC50
1 | B1 | 8 pM
2 | B2 | 10 pM
3 | B3 | 10 pM
4 | B4 | 11 pM
5 | B5 | 7 pM
6 | B6 | 10 pM
7 | B7 | 6 pM
8 | B8 | 11 pM
9 | B9 | 10 pM
10 | B10 | 13 pM
11 | B11 | 6 pM
12 | B12 | 16 pM
13 | B13 | 16 pM
